# Assay results reported in the supplement of paper PMC5919970.
# Where a name gives a salt, the structure may show the parent alone. The full ranking holds about 2,000 compounds; the median of “fractional viability relative to vehicle” is about 0.91, and the lowest 2% start at about 0.045. This is one part of the list.
# Test system: TYKNU
# Assay: fractional viability relative to vehicle; TYKNU is a high-grade serous ovarian cancer line; higher = less growth inhibition
# Settings: 72 h
# Procedure, shortened: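 TYKNU control cells or lentiCRISPRv2 knockout derivatives were seeded at 500 cells per well into drug-stamped 384-well plates holding a ~2100-compound library at 2 or 10 μM, in duplicate. Cells were grown at 37 °C in 5% CO2 in RPMI 1640 with 10% FBS, and drug treatment lasted 72 h. Viability was read by Cell Titer Glo luminescence. Duplicate treatment wells were averaged and normalised to duplicate control wells from the same plate position.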
# [1] = 2uM, genotype: DNM1L knockout (sgDNM1L #1)
# [2] = 2uM, genotype: sgCTRLA1 (non-targeting control)
# [3] = 10uM, genotype: DNM1L knockout (sgDNM1L #1)
# [4] = 10uM, genotype: sgCTRLA1 (non-targeting control)
SMILES,fractional viability [1],fractional viability [2],fractional viability [3],fractional viability [4]
CC/C(=C(/CC)c1ccc(O)cc1)c1ccc(O)cc1 [Diethylstilbestrol],0.885,1.14,0.688,0.952
CC1=C(/C=C/C(C)=C/C=C/C(C)=C\C(=O)O)C(C)(C)CCC1 [Isotretinoin],1.01,1.08,0.71,1.07
NC(N)=Nc1nc(CSCC/C(N)=N/S(N)(=O)=O)cs1 [Famotidine],1.11,1.07,0.882,1.03
C/C(=C\c1ccc(C(=O)O)cc1)c1ccc2c(c1)C(C)(C)CCC2(C)C [TTNPB (Arotinoid Acid)],0.924,1.14,0.81,1.11
COc1ccc(-c2ccc3c(N4CCOCC4)nc(N4C[C@@H](C)O[C@@H](C)C4)nc3n2)cc1CO,0.351,0.377,0.217,0.232
OC(CN1CCN(c2cccc(Cl)c2)CC1)C(c1ccccc1)c1ccccc1 (stereo not drawn),0.96,1.02,0.831,1.05
CN(C)[C@@H]1C(O)=C(C(N)=O)C(=O)[C@@]2(O)C(O)=C3C(=O)c4c(O)cccc4[C@@](C)(O)[C@H]3[C@H](O)[C@@H]12 [Oxytetracycline (Terramycin)],0.957,1.04,0.954,0.951
CN(C)[C@@H]1C(O)=C(C(N)=O)C(=O)[C@@]2(O)C(O)=C3C(=O)c4c(O)cccc4[C@@](C)(O)[C@H]3[C@H](O)[C@@H]12 [Oxytetracycline Dihydrate],0.844,1.18,1.1,1.06
COc1cc(OC)c(/C=C/S(=O)(=O)Cc2ccc(OC)c(NCC(=O)O)c2)c(OC)c1,0.182,0.164,0.156,0.138
CCCCCCCc1ccc(CCc2cccc(O)c2C(=O)O)cc1,0.825,1.04,0.896,0.765
Cc1ccc([N+](=O)[O-])cc1S(=O)(=O)N(C)/N=C/c1cnc2ccc(Br)cn12,0.244,0.289,0.212,0.161
Cc1noc(C)c1-c1ccc(-c2cc(C(N)=O)c(NC(N)=O)s2)c(O[C@H]2CCNC2)c1,0.787,0.967,0.867,0.756
CN1CCN(c2c(F)cc3c(=O)c(C(=O)O)cn4c3c2OCN4C)CC1 [Marbofloxacin],1.13,1.21,0.971,1.01
CCCCCCCCCCCCc1ccc(S(=O)(=O)Nc2nncs2)cc1,0.997,1.07,0.843,0.966
CCN(CC)CCOC(=O)C(c1ccccc1)c1ccccc1 [Adiphenine HCl],0.978,1.15,0.867,1.18
OC(CCCN1CCCCC1)(c1ccccc1)c1ccccc1 [Diphenidol HCl],0.756,1.12,0.697,1.06
C[C@H]1[C@H](C)CC[C@]2(C(=O)O)CC[C@]3(C)C(=CC[C@@H]4[C@@]5(C)C[C@@H](O)[C@H](O)[C@@](C)(CO)[C@@H]5CC[C@]43C)[C@H]12 [Asiatic Acid],0.871,1.06,0.71,1.09
CCOC(=O)c1ccc(N)cc1 [Benzocaine],0.909,1.12,0.81,1.09
Cc1ncc(Cl)cc1NCc1ccc(C(=O)N[C@@H](CC2CCCC2)C(=O)NC2CC2)s1,0.845,0.992,0.838,0.778

SMILES,fractional viability [1],fractional viability [2],fractional viability [3],fractional viability [4]
C=CC(C)(C)c1cc(/C=C/C(=O)c2ccc(O)cc2)c(OC)cc1O [Licochalcone A],0.895,0.99,0.641,0.65
O=C(CCCCCCC(=O)Nc1ccc([C@H]2O[C@@H](CSc3nc(-c4ccccc4)c(-c4ccccc4)o3)C[C@@H](c3ccc(CO)cc3)O2)cc1)NO [Tubacin],0.862,1.16,0.362,0.316
COc1cc(C(C)=O)ccc1O [Apocynin],1.01,0.937,0.799,0.882
Nc1cc(F)ccc1NC(=O)/C=C/c1cnn(C/C=C/c2ccccc2)c1,0.803,1.06,0.819,0.94
CN(Cc1cnc2nc(N)nc(N)c2n1)c1ccc(C(=O)N[C@@H](CCC(=O)O)C(=O)O)cc1 [Methotrexate],0.281,0.368,0.251,0.36
CCOc1ccc2nc3cc(N)ccc3c(N)c2c1 [Ethacridine lactate monohydrate],0.688,0.997,0.152,0.436
O=C1NC(=O)/C(=C/c2ccc3c(c2)OC(F)(F)O3)S1,0.955,1.1,0.763,1.02
CCOc1ccccc1OC(c1ccccc1)C1CNCCO1 (stereo not drawn) [Reboxetine mesylate],1.04,1.08,0.808,0.947
O=c1[nH]cnc2c1ncn2[C@@H]1O[C@H](CO)[C@@H](O)[C@H]1O [Inosine],1.07,1.01,1.05,1.06
COc1cc([C@@H]2c3cc4c(cc3[C@@H](O[C@@H]3O[C@@H]5CO[C@@H](c6cccs6)O[C@H]5[C@H](O)[C@H]3O)[C@H]3COC(=O)[C@H]23)OCO4)cc(OC)c1O [Teniposide],0.234,0.195,0.0825,0.0721
O=c1ccc2ccccc2o1 [Coumarin],0.708,0.897,0.743,0.91
Nc1nc(=S)c2ncn([C@H]3C[C@H](O)[C@@H](CO)O3)c2[nH]1,0.812,0.572,0.453,0.247
Cc1nc(-c2cccnc2)sc1C(=O)Nc1ccccc1-c1cn2c(CN3CCOCC3)csc2n1,0.821,0.932,0.858,0.78
CN(C)CCCN1c2ccccc2Sc2ccc(Cl)cc21 [Chlorpromazine HCl],0.95,1.11,0.537,0.819
C[C@H](Nc1ncnc2[nH]cnc12)c1cc2ccc(F)cc2nc1-c1ccccn1,0.749,0.808,0.828,0.615
Nc1ccc(C(=O)Nc2cccc(-c3nc(N4CCOCC4)c4oc5ncccc5c4n3)c2)cn1,0.518,0.435,0.208,0.21
Cn1cc(-c2ccncc2)c(-c2ccc(OCc3ccc4ccccc4n3)cc2)n1,1.2,0.984,1.01,0.851
O=C(O)[C@H]1O[C@@H](Oc2cc3oc(-c4ccccc4)cc(=O)c3c(O)c2O)[C@H](O)[C@@H](O)[C@@H]1O [Baicalin],0.98,1.26,0.502,0.755
C=CC(=O)Nc1ccc(CN2C(=O)N(c3cc(OC)cc(OC)c3)Cc3cnc(Nc4ccc(N5CCN(C)CC5)cc4)nc32)cc1,0.926,0.803,0.0593,0.0423

SMILES,fractional viability [1],fractional viability [2],fractional viability [3],fractional viability [4]
Cc1cc(C)c(S(=O)(=O)n2cc(C)cc2C)c(C)c1,0.788,0.862,0.757,0.765
Cc1[nH]c2ccccc2c1CCNCc1ccc(/C=C/C(=O)NO)cc1 [Panobinostat (LBH589)],0.0758,0.104,0.0944,0.113
c1cncc(CN2CCC(n3ncc4c(N5CCOCC5)nc(-c5ccc6[nH]ccc6c5)nc43)CC2)c1,0.817,0.497,0.145,0.128
COC1CCN(C(=O)c2cc(Cc3n[nH]c(=O)c4ccccc34)ccc2F)CC1,0.8,0.94,0.578,0.83
CCCCN1CCCCC1C(=O)Nc1c(C)cccc1C (stereo not drawn) [Bupivacaine HCl],0.856,1.11,0.92,0.924
CCOC(=O)c1[nH]c2cc(Cl)ccc2c1C(C(=O)NC(C)(C)C)N(C=O)Cc1ccc(Cl)cc1 (stereo not drawn),0.658,0.864,0.399,0.463
Cc1ccc2c(=O)c3cccc(CC(=O)O)c3oc2c1C [DMXAA (Vadimezan)],0.966,1.06,1.04,1.04
C[C@H]1O[C@@H](Oc2c(-c3cc(O)c(O)c(O)c3)oc3cc(O)cc(O)c3c2=O)[C@@H](O)[C@@H](O)[C@@H]1O [Myricitrin],0.93,1.29,0.801,1.07
C=C1/C(=C\C=C2/CCC[C@]3(C)[C@@H]([C@H](C)/C=C/[C@H](C)C(C)C)CC[C@@H]23)C[C@@H](O)C[C@@H]1O [Doxercalciferol],0.853,1.15,0.387,0.676
Cc1nc(-c2ccc(OCC(C)C)c(C#N)c2)sc1C(=O)O [Febuxostat],0.939,1.22,0.921,1.1
CC(C(=O)O)c1ccc2c(c1)CC(=O)c1ccccc1S2 (stereo not drawn) [Zaltoprofen],1.16,1.11,0.907,1.09
Oc1cc2c(cc1O)[C@@H]1c3ccc(O)c(O)c3OC[C@]1(O)C2 [Hematoxylin],0.878,1.11,0.861,0.977
CN(C)c1ccc(C(=C2C=CC(=[N+](C)C)C=C2)c2ccc(N(C)C)cc2)cc1 [Crystal Violet],0.133,0.121,0.0375,0.0133
COc1ccc(CC2c3cc(OC)c(OC)cc3CC[N+]2(C)CCC(=O)OCCCCCOC(=O)CC[N+]2(C)CCc3cc(OC)c(OC)cc3C2Cc2ccc(OC)c(OC)c2)cc1OC (stereo not drawn) [Atracurium Besylate],1.07,1.01,0.947,0.843
CC(=O)[C@H]1CC[C@H]2[C@@H]3CC=C4C[C@@H](O)CC[C@]4(C)[C@H]3CC[C@]12C [Pregnenolone],1.03,1.1,0.754,0.925
CCN1CCN(Cc2ccc(-c3cc4c(N[C@H](C)c5ccccc5)ncnc4[nH]3)cc2)CC1,0.943,0.995,0.305,0.202
CCOC(=O)c1c(CSc2ccccc2)n(C)c2cc(Br)c(O)c(CN(C)C)c12 [Arbidol HCl],0.913,1.07,0.611,0.645
Cc1nc(Nc2ncc(C(=O)Nc3c(C)cccc3Cl)s2)cc(N2CCN(CCO)CC2)n1 [Dasatinib],0.4,0.555,0.28,0.223
Cc1cc(Nc2nc(N[C@@H](C)c3ccc(F)cc3)c(C#N)cc2F)n[nH]1,0.489,0.626,0.508,0.533
